Measurements: article PMC7515635
No constants are given. Whether binding was seen depends on the method and setting. For part of these data: In cells and extracts the contact can be indirect. Some entries that bind do so weakly or less than the wild type. For part of these data: Sequences can lack the tags named with a protein.

Amino acid sequences for entries named in this document (tags omitted). A change or cut given only in a name is not applied to a line headed by its entry.
UniProt Q9FG23: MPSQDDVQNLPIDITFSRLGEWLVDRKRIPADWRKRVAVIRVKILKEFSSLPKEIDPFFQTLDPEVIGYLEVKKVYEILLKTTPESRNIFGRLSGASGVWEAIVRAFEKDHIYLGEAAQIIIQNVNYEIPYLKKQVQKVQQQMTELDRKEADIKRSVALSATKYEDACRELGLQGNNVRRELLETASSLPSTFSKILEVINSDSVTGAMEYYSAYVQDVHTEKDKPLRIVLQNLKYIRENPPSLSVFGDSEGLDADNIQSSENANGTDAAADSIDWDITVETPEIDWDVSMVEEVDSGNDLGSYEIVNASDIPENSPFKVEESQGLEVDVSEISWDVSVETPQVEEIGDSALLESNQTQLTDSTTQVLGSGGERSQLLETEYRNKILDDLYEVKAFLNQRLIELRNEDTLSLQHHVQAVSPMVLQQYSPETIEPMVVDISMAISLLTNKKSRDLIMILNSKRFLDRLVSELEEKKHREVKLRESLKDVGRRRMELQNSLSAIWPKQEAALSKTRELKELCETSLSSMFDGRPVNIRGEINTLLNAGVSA

Legend:
[1] = molecular target: HIS6-AtC53 (Arabidopsis thaliana) (UniProt Q9FG23); experiment: native MS; proteins exchanged into ammonium acetate, nanoelectrospray, Synapt G2Si; C53 1-5 µM or IDR 2.5 µM with 5-20 µM ATG8A or GABARAP; both purified
[2] = molecular target: T1, GST-ATG8A^LDS(YL50AA) (Arabidopsis thaliana) (UniProt Q8LEM4); experiment: pull-down; E. coli lysates with recombinant proteins mixed, glutathione magnetic agarose beads, 1 h 4°C, 100 mM sodium phosphate pH 7.2, 300 mM NaCl, 1 mM DTT, 0.01% IGEPAL; immunoblot; peptides at 200 µM where added
T1 sequence: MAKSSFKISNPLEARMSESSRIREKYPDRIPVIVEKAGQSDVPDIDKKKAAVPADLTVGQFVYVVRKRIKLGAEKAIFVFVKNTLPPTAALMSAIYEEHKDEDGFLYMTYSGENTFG

[3] = molecular target: GST-ATG8A (Arabidopsis thaliana) (UniProt Q8LEM4); experiment: as above

Substance | binding [1] | binding [2] | binding [3]
HIS6-AtC53 (from UniProt Q9FG23 1-549) | no binding (tested: 1 µM) |  | 
MBP-AtC53^IDR(239-372) (from UniProt Q9FG23 239-372) (domain or fragment) |  |  | binds
Strep -AtC53^(AIM (F48A, Y69A, Y76A, W100A, Y304A)) (from UniProt Q9FG23 1-549) |  |  | binds

Continued, values first:

binding [1] | binding [2] | binding [3] | Substance
 | no binding | binds | MBP-AtC53 (from UniProt Q9FG23 1-549)
 |  | binds | Strep-AtC53 (from UniProt Q9FG23 1-549)
